The results in this text go back to PMC6919601, “Identification of Plasmodium dipeptidyl aminopeptidase allosteric inhibitors by high throughput screening” (PLoS ONE, 2019).

About 230 (0.21%) of roughly 110,000 compounds showed an effect of 50% or more. The list shows a part of the results.
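Note: 30 min substrate incubation versus DMSO and 10 µM JCP410 controls.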

Sequence of DPAP1 (Q8IIJ9 whole entry, looked up): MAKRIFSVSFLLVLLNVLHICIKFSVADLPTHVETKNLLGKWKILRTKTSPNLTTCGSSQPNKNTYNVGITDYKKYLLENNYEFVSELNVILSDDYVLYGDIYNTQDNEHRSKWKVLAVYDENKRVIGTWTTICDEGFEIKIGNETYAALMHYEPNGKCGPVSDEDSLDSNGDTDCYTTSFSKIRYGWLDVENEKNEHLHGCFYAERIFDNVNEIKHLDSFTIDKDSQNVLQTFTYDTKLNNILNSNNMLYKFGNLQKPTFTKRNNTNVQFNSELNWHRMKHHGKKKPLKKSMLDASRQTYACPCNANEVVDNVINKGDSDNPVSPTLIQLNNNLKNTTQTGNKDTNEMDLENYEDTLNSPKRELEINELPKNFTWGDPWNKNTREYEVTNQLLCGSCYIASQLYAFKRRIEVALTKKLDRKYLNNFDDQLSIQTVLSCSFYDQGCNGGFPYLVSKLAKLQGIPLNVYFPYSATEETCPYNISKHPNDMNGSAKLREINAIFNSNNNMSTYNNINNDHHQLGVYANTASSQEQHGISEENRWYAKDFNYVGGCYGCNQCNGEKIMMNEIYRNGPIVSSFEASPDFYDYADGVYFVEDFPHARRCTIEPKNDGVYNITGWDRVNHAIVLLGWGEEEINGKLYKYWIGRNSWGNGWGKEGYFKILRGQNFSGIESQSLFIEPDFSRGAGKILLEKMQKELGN

The assay has as its target DPAP1 (Plasmodium falciparum, UniProt Q8IIJ9). Kind of assay: primary screen, percent inhibition; read by cleavage of a fluorogenic dipeptide substrate; higher = more effect of the substance. Also noted: species or system P. falciparum D10 trophozoite lysates; single well.
Regarding `Cc1cccc(OCCCN2CCCCC2)c1C`, the “% Inhibition @ 10 uM” value is -3.03%. `COc1ccc(C2=NN(c3ccc(Cl)cc3)C(c3cccs3)C2)cc1` (stereo not drawn): the “% Inhibition @ 10 uM” value is 5.06%. For the compound `Cc1ccc(NC(=O)c2ccccc2Cl)c([N+](=O)[O-])c1`, the “% Inhibition @ 10 uM” value worked out at 1.91%.

For the compound `CC1(C)CC(=O)C2=C(C1)N(Cc1ccccc1)CN(Cc1ccco1)C2`, the “% Inhibition @ 10 uM” value came out at 2.31%. Consider `C=CCO/C(O)=C1\C(C)=Nc2nnnn2C1c1cc(Br)ccc1OC` (stereo not drawn), for which the “% Inhibition @ 10 uM” value stood at 6.36%. `CCC1CCc2c(sc(NC(=O)C3CCC3)c2C#N)C1` (stereo not drawn): the “% Inhibition @ 10 uM” value is recorded as -2.8%. For `COc1ccccc1N1CCN(S(=O)(=O)c2ccc(Cl)cc2)CC1`, the “% Inhibition @ 10 uM” value is on record as -1.38%. Consider `CCOC(=O)c1c(C)n(-c2ccccc2C)c2ccc(OC)cc12`, for which the “% Inhibition @ 10 uM” value is -2.13%. On to `C=CCN1C(=O)S/C(=C\c2ccc(N3CCOCC3)cc2C)C1=O`, for which the “% Inhibition @ 10 uM” value is on record as -1.51%. Take `CC(C)c1cc(C(C)C)c(S(=O)(=O)NCCO)c(C(C)C)c1`: the “% Inhibition @ 10 uM” value turned out to be 6.6%. As for `O=C(Cc1cccc2ccccc12)N1CCN(S(=O)(=O)c2ccc(F)cc2)CC1`, the “% Inhibition @ 10 uM” value is on record as -3.21%. On to `Cc1ccc(-c2cc(-c3ccc(Cl)cc3)[nH]n2)c(O)c1`, for which the “% Inhibition @ 10 uM” value was -1.82%. Turning to `O=C(NCc1ccco1)Nc1ccc(Cl)cc1`, the “% Inhibition @ 10 uM” value was -5.51%. The result for `N#Cc1c(NC(=O)CCn2cnc3ccccc3c2=O)sc2c1CCCC2` reads 4.33%; that for `C=CCNC(=O)c1ccccc1NC(=O)c1ccc(CN2CCOCC2)cc1`, -2.67%. `CCOc1ccc(N(CC(=O)Nc2ccccc2C(F)(F)F)S(C)(=O)=O)cc1`: the “% Inhibition @ 10 uM” value is listed as 4.57%. Next, `O=C(C1=C(O)C(=O)N(c2ccccn2)C1c1cccnc1)c1ccc(Cl)cc1` (stereo not drawn): 0.408%; `O=C(c1ccc(F)c(S(=O)(=O)N2CCOCC2)c1)N1c2ccccc2Sc2ccccc21`: -3.14%; `Oc1cc(-c2ccc(Cl)cc2)cc(-c2ccccc2)n1`: 0.51%. Turning to `COc1ccc(/C=N/n2cnnc2S)cc1`, the “% Inhibition @ 10 uM” value stood at 33.7%. Regarding `O=C(O)/C=C/C(=O)Nc1ccc2nn(-c3ccccc3)nc2c1`, the “% Inhibition @ 10 uM” value is -3.92%.

In the case of `CCOc1ccc2c(c1)CN(Cc1ccc(Cl)cc1)CO2`, the “% Inhibition @ 10 uM” value is reported as 1.62%. Consider `CN1C2=NCCCN2c2ccccc21`, for which the “% Inhibition @ 10 uM” value was -1.54%.

`CC1CCCN(Cc2nc3c(c(=O)n(C)c(=O)n3C)n2CCc2ccccc2)C1` (stereo not drawn): the “% Inhibition @ 10 uM” value is recorded as -3.23%. For the compound `COc1ccc(C(=O)N2CCN(c3ccc(Cl)c(Cl)c3)CC2)cc1OC`, the “% Inhibition @ 10 uM” value is on record as -3.34%. For the compound `CCOc1ccc(C2C3=C(CCCC3=O)N(CC(=O)O)C3=C2C(=O)CCC3)cc1`, the “% Inhibition @ 10 uM” value was 0.389%. On to `N#CC1=C(N)Oc2c(cc(Cl)c3ccccc23)C1c1ccc(F)cc1` (stereo not drawn), for which the “% Inhibition @ 10 uM” value is 3.03%. The result for `N#CC1=C(N)Oc2c(c(=O)oc3ccccc23)C1c1ccc([N+](=O)[O-])cc1` (stereo not drawn) reads -5.33%; that for `CCSc1c(S)cnn(-c2ccccc2)c1=O`, 1.7%. Next, `Cc1cccc(NC2=C(Cl)C(=O)N(c3ccccc3)C2=O)c1`: 2.68%. Turning to `O=C1NC(=O)N(Cc2ccccc2)C(=O)/C1=C\c1ccc(SC2CCCCC2)o1`, the “% Inhibition @ 10 uM” value was -1.28%. Regarding `COc1ccc(NC(=O)c2c(NC(=O)CCC(=O)O)sc3c2CCC(C)C3)cc1` (stereo not drawn), the “% Inhibition @ 10 uM” value stood at 11.2%. As for `Cc1nc(N2CCCC2)c2c3c(sc2n1)CC(C)CC3` (stereo not drawn), the “% Inhibition @ 10 uM” value is given as -11.9%. Turning to `COc1ccccc1Oc1ncnc2scc(-c3ccc(F)cc3)c12`, the “% Inhibition @ 10 uM” value is on record as -3.4%. `Cc1ccc(S(=O)(=O)Nc2cccc(F)c2)cc1C(N)=O`: the “% Inhibition @ 10 uM” value is recorded as -9.7%. The result for `CSc1ccc(CN(C)CCc2ccccn2)cc1` reads 5.56%; that for `COc1ccc(-c2cc(C(F)(F)F)n3nc(C(=O)O)cc3n2)cc1`, -4.03%. The result for `O=C(CCCCCN1C(=O)c2ccccc2C1=O)Nc1ccc2c(c1)OCO2` reads -5.51%. As for `CCN(c1nc(C)cc(OC)n1)S(=O)(=O)c1ccccc1`, the “% Inhibition @ 10 uM” value was found to be 6.65%. Next, `Cc1nn(CC(=O)NC2CCCc3ccccc32)c(=O)c2c1sc1ccccc12` (stereo not drawn): 1.76%; `CCC(C)(C#CCN1CCOCC1)OC(C)=O` (stereo not drawn): -0.693%. Turning to `N#Cc1c2n(c3c(-c4ccccc4)ncnc13)CCC2`, the “% Inhibition @ 10 uM” value is 2.4%. With `COc1ccc(NC2CC(C)Nc3cc(OC)c(OC)cc32)cc1OC` (stereo not drawn), the “% Inhibition @ 10 uM” value is 3.53%.

`CNc1nc(NC(C)(C)C)nc(NC(C)(C)C)n1`: the “% Inhibition @ 10 uM” value amounted to 4.22%. Next, `CCCCC1=NN(C(=O)c2ccc(O)cc2)C(O)(C(F)(F)F)C1` (stereo not drawn): 2.36%; `CSc1nc2ccccc2n1-c1ccccc1`: -1.55%; `CC(C)CC(=O)Nc1cccc(-c2nc3cc(Cl)ccc3o2)c1`: -2.97%.

For the compound `CCN1CCC(NC2CCN(Cc3ccccc3)CC2)CC1`, the “% Inhibition @ 10 uM” value is recorded as 1.57%.

Consider `Nc1c(N2CCOCC2)cc(O)c2c1C(=O)c1ccccc1C2=O`, for which the “% Inhibition @ 10 uM” value was -0.0953%. As for `CS(=O)(=O)N(CC(=O)NCC1CCCO1)c1cccc(F)c1` (stereo not drawn), the “% Inhibition @ 10 uM” value is on record as -5.07%. Consider `Cc1ccc(-n2nnc(-c3nc(-c4ccccc4C)no3)c2N)c(C)c1`, for which the “% Inhibition @ 10 uM” value was -2.72%.
